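Assay format: 96-well plates, 48-hour exposure. Abbreviation: GI50, concentration required for 50% inhibition of growth.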 The source holds more than one record for some entries. Only these are listed. An entry can have further records. Records of one sample usually come from different ranges of test concentrations, not given here; some values may only mark the edge of a range.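 TGI: concentration producing complete growth inhibition.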
What was measured:
Test in all cases: inhibition of tumour cell growth, NCI panel, 48 h
SNB-75 CNS = tested on: SNB-75 CNS
SW-620 colon = tested on: SW-620 colon
SR leukemia = tested on: SR leukemia
TK-10 renal = tested on: TK-10 renal
K-562 leukemia = tested on: K-562 leukemia
UO-31 renal = tested on: UO-31 renal
CAKI-1 renal = tested on: CAKI-1 renal
HS 578T breast = tested on: HS 578T breast
SK-MEL-2 melanoma = tested on: SK-MEL-2 melanoma
RPMI-8226 leukemia = tested on: RPMI-8226 leukemia
MDA-MB-435 = tested on: MDA-MB-435
RXF 393 renal = tested on: RXF 393 renal
NCI-H23 lung = tested on: NCI-H23 lung
KM12 colon = tested on: KM12 colon
SF-295 CNS = tested on: SF-295 CNS
UACC-62 melanoma = tested on: UACC-62 melanoma
786-0 renal = tested on: 786-0 renal
COLO 205 colon = tested on: COLO 205 colon
MALME-3M melanoma = tested on: MALME-3M melanoma
BT-549 breast = tested on: BT-549 breast
OVCAR-4 ovarian = tested on: OVCAR-4 ovarian
A549 NSCLC = tested on: A549 NSCLC
M14 melanoma = tested on: M14 melanoma
NCI-H522 lung = tested on: NCI-H522 lung
NCI/ADR-RES ovarian = tested on: NCI/ADR-RES ovarian
SK-OV-3 ovarian = tested on: SK-OV-3 ovarian
SF-539 CNS = tested on: SF-539 CNS
HT29 colon = tested on: HT29 colon

O=C(Nc1cccc(-n2ccc3c(NC(=O)c4ccccc4)nccc32)c1)c1ccc(Cl)c(C(F)(F)F)c1
TGI (SNB-75 CNS): 837 nM and > 100 µM | GI50 (SW-620 colon): 3.46 µM [1 test] and 152 nM [mean of 2 tests] | TGI (SW-620 colon): 30.8 µM [1 test] and 749 nM [mean of 2 tests] | GI50 (SR leukemia): 1.14 µM [1 test] and 49.9 nM [mean of 2 tests] | TGI (TK-10 renal): > 100 µM [1 test] and 1.88 µM [mean of 2 tests] | GI50 (K-562 leukemia): 2.4 µM [1 test] and 97.3 nM [mean of 2 tests] | GI50 (UO-31 renal): 25.8 µM [1 test] and 402 nM [mean of 2 tests] | TGI (UO-31 renal): > 100 µM [1 test] and 6.67 µM [mean of 2 tests] | GI50 (CAKI-1 renal): 3.99 µM [1 test] and 106 nM [mean of 2 tests] | TGI (CAKI-1 renal): > 100 µM [1 test] and 1.19 µM [mean of 2 tests] | GI50 (HS 578T breast): 39.5 µM [1 test] and 119 nM [mean of 2 tests] | TGI (HS 578T breast): > 100 µM [1 test] and 976 nM [mean of 2 tests] | GI50 (SK-MEL-2 melanoma): 195 nM and 40.7 µM | TGI (SK-MEL-2 melanoma): 2.28 µM and > 100 µM | GI50 (RPMI-8226 leukemia): 1.8 µM [1 test] and 178 nM [mean of 2 tests] | TGI (RPMI-8226 leukemia): 42.2 µM [1 test] and 1.57 µM [mean of 2 tests] | GI50 (MDA-MB-435): 4.52 µM [1 test] and 24.2 nM [mean of 2 tests] | TGI (MDA-MB-435): 51 µM [1 test] and 117 nM [mean of 2 tests] | GI50 (RXF 393 renal): 32.8 µM [1 test] and 83.2 nM [mean of 2 tests] | TGI (RXF 393 renal): > 100 µM [1 test] and 322 nM [mean of 2 tests] | GI50 (NCI-H23 lung): 42.6 µM [1 test] and 220 nM [mean of 2 tests] | TGI (NCI-H23 lung): > 100 µM [1 test] and 1.93 µM [mean of 2 tests] | GI50 (KM12 colon): 5.59 µM [1 test] and 103 nM [mean of 2 tests] | TGI (KM12 colon): 36.8 µM [1 test] and 765 nM [mean of 2 tests] | GI50 (SF-295 CNS): 3.81 µM [1 test] and 99.3 nM [mean of 2 tests] | TGI (SF-295 CNS): > 100 µM [1 test] and 561 nM [mean of 2 tests] | GI50 (UACC-62 melanoma): 5.29 µM [1 test] and 89.2 nM [mean of 2 tests] | TGI (UACC-62 melanoma): > 100 µM [1 test] and 908 nM [mean of 2 tests] | GI50 (786-0 renal): 235 nM and 6.88 µM | TGI (786-0 renal): 967 nM and > 100 µM | GI50 (COLO 205 colon): 16.2 µM [1 test] and 146 nM [mean of 2 tests] | TGI (COLO 205 colon): > 100 µM [1 test] and 448 nM [mean of 2 tests] | GI50 (MALME-3M melanoma): 72.9 µM [1 test] and 285 nM [mean of 2 tests] | TGI (MALME-3M melanoma): > 100 µM [1 test] and 1.61 µM [mean of 2 tests] | GI50 (BT-549 breast): 211 nM and 4.8 µM | TGI (BT-549 breast): 948 nM and > 100 µM | GI50 (OVCAR-4 ovarian): 14.6 µM [1 test] and 364 nM [mean of 2 tests] | TGI (OVCAR-4 ovarian): 45.7 µM [1 test] and 1.72 µM [mean of 2 tests] | GI50 (A549 NSCLC): 2.11 µM [1 test] and 173 nM [mean of 2 tests] | TGI (A549 NSCLC): 21.5 µM [1 test] and 921 nM [mean of 2 tests] | GI50 (M14 melanoma): 10.6 µM [1 test] and 148 nM [mean of 2 tests] | TGI (M14 melanoma): > 100 µM [1 test] and 734 nM [mean of 2 tests] | GI50 (NCI-H522 lung): 5.77 µM [1 test] and 27.8 nM [mean of 2 tests] | TGI (NCI-H522 lung): 38 µM [1 test] and 188 nM [mean of 2 tests] | GI50 (NCI/ADR-RES ovarian): 9.03 µM [1 test] and 96.1 nM [mean of 2 tests] | TGI (NCI/ADR-RES ovarian): 41.7 µM [1 test] and 294 nM [mean of 2 tests] | GI50 (SK-OV-3 ovarian): 157 nM and > 100 µM | TGI (SK-OV-3 ovarian): 5.7 µM and > 100 µM | GI50 (SF-539 CNS): 14.9 µM [1 test] and 135 nM [mean of 2 tests] | TGI (SF-539 CNS): > 100 µM [1 test] and 488 nM [mean of 2 tests] | GI50 (HT29 colon): 2.33 µM [1 test] and 142 nM [mean of 2 tests] | TGI (HT29 colon): 28.8 µM [1 test] and 499 nM [mean of 2 tests]

From PubChem BioAssay (NCI)
